Values marked as one replicate rest on one cluster of the flow cell; about a third of the high ones do not repeat.

The subject of this data set is ATP. Nature of the data set: switch fluorescence ratio, 500 uM ATP over buffer (Cy3 cluster intensity, sum of 5 cycles each) (fold (ratio)); higher = stronger signal-on switching upon ATP binding; sequences stand for … in TCGTCGGCAGCGTCAGATGTGTATAAGAGACAGTTTTTTTTTTTTTTTTTTTTTTTTT…TC. The following applies: aptamer strand: ATP DNA aptamer (quencher-CACCTGGGGGAGTATTGCGGAGGAAGG + anchor), 100 nM annealed; ATP concentration: 500 uM; one replicate. The gist of the method:
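After annealing to 100 nM quencher-labelled ATP aptamer, Cy3-labelled switching-strand clusters on a modified Illumina MiSeq flow-cell were imaged in selection buffer. A second image followed after 15 min with 500 uM ATP at 22 °C, and five such buffer/ATP cycles were done, each separated by NaOH stripping and re-annealing. The fluorescence ratio, averaged per switch-domain sequence, is summed target-cycle over summed buffer-cycle Cy3 intensity per cluster, with clusters outside 100-1000 RFU excluded.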
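Further: ATP exposure 15 min at 22 °C before imaging.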

In the case of TCAGGAATTG, the switch fluorescence ratio is 0.992.
As for CCTTCATAG, the figure is 1.18; as for ACGGCAGTT, 0.967.
GCCCGTGGGT: the switch fluorescence ratio came to 1.
As for GAGGGGCTTG, the figure is 1.02.
As for CAATTTGAAC, the figure is 0.963.
Regarding TTGTCAGGAA, the switch fluorescence ratio is 0.972.
In the case of GACAACGCTT, the switch fluorescence ratio is 1.65.
ACGAATGTGA: the switch fluorescence ratio amounted to 1.04.
As for CCAATAGCTG, the figure is 1.43; as for TATGTTGCCG, 0.984.
Next, TAACTACATG: 0.992; TTACCTAATC: 1.06.
As for ATTGTGTGTG, the switch fluorescence ratio is 1.02.
Next, GGACTATTAT: 1.04.
With ACAAAGGCGA, the switch fluorescence ratio amounted to 1.06.
GACGATTACA: the switch fluorescence ratio amounted to 1.12.
Regarding TTAATTTGTA, the switch fluorescence ratio worked out at 0.985.
As for CTGGCCTACG, the figure is 1.05.
Regarding TCTAATATGC, the switch fluorescence ratio came out at 1.06.
For CCGGCTGGGC, the switch fluorescence ratio worked out at 0.988.
Next, ATTTGACTGA: 1.02.
Consider ACTAGGGGCG, for which the switch fluorescence ratio amounted to 1.03.
As for TCACTAGTTT, the figure is 0.99; as for TTTGGAGCCT, 1.75; as for AGACAGTTAC, 1.16.
As for CTACGATTCT, the figure is 1.03; as for AGCTAAATTT, 1.04.
For TTCTCGGCGA, the switch fluorescence ratio came out at 2.76.
Next, GAAAATTGAA: 0.982; GCTGGTCGAT: 1.06; TAGTACGGCG: 1.01.
GGGACAACCT: the switch fluorescence ratio stood at 1.41.
AGGTCTTTCT: the switch fluorescence ratio was 0.975.
Next, AATCATACGT: 1.02; TGGCATTAAC: 1.2; ATCCAATATC: 1.32.
For TGCTGAGTCA, the switch fluorescence ratio came to 0.964.
In the case of GGCCACCCTG, the switch fluorescence ratio was found to be 1.
For the sequence TACGGTCGGT, the switch fluorescence ratio came to 0.981.
With AGTTCCAGGT, the switch fluorescence ratio stood at 1.2.
For the sequence GGACTAGGGC, the switch fluorescence ratio came out at 1.03.
Next, CGAGACCTCC: 1.31; TGGCCTGATA: 1.07; CACCGCCAG: 1.33.
Next, TATCGCCAGC: 1.07.
As for GCGTATGAGC, the figure is 1.01; as for TGCACCAAAA, 0.99; as for AATATGGCGC, 1.02.
Consider AAGTTGTCC, for which the switch fluorescence ratio worked out at 0.953.
As for GATTCGCTTC, the figure is 1.01.
Regarding ATAACGGCTG, the switch fluorescence ratio worked out at 1.06.
As for TTCTGAGGAC, the figure is 0.988; as for TGAGTGATAG, 1.09.
As for GGTTTGAAG, the figure is 0.981.
Next, GGCTTTCGGG: 1.03; GCCGAATAGA: 1.02.
Turning to GGGGAGACGG, the switch fluorescence ratio is 0.994.
With TATGGAAGCG, the switch fluorescence ratio was found to be 0.999.
Take TGTTGTAGAG: the switch fluorescence ratio turned out to be 1.01.
Next, ATTGGGACTG: 1.03; CCTTGGGCGG: 1.12.
For CTTTAGAATT, the switch fluorescence ratio worked out at 1.
Next, GCACCGCGCG: 1.05; CAAAATGATC: 0.96.
Next, ACTGGTCGTC: 1.05; CGTCGAGGGT: 0.96.

The record behind these values is the supplement of paper PMC10126150.
